Consider one molecule from US20130058928A1 (Five Prime, published 2013).

Assay [1] has as its target T1, FGF-1 (human, UniProt P05230).
T1 construct: Bought recombinant protein
Kind of assay: SPR, Biacore T100; Fc fusion captured on Protein-A CM5 chip, FGF as analyte, 50 ug/ml heparin; average of two independent measurements. The protocol:
(§1) The specificity of FGF ligand binding to an FGFR3-IIIc ECD-Fc (SEQ ID NO: 10) was assessed using Biacore® T100 surface plasmon resonance (SPR) technology (Biacore; Piscataway, N.J.). Expression constructs for expressing the FGFR3-IIIc ECD-Fc (SEQ ID NO: 10) fusion protein in 293-6E host cells using the pTT5 vector were made in a manner similar to that described above using cDNAs prepared internally and conventional techniques. The FGFR3-IIIc ECD-Fc fusion protein was produced from 293-6E host cells as described in WO/2007/014123 (PCT/US06/028597) (Examples 2 and 3).
(§2) Protein-A was covalently linked to a CM5 chip, according to manufacturer's instructions and then an FGFR ECD fusion protein was bound to the chip by the interaction of the Fc domain with the Protein-A. The FGF ligands were placed in contact with the FGFR ECD fusion protein, also according to manufacturer's instructions, in the presence of HBS-P buffer (Biacore; Piscataway, N.J.) supplemented with 50 ug/ml heparin (Sigma; St. Louis, Mo.).
On the technique in general: SPR reads the build-up and loss of mass on a sensor chip optically.

In assay [2] the target is T2, FGF-18 (recombinant, mouse origin) (mouse, UniProt O89101 28-207, limits assumed).
T2 construct: Bought recombinant protein
T2 sequence (looked up): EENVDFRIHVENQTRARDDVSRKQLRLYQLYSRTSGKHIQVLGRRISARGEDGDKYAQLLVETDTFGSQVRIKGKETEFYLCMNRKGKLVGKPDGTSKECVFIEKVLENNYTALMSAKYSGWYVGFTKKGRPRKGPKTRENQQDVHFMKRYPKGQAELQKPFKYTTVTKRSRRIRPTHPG
The assay is described as above. The procedure:
as §1, §2

The target in assay [3] is T3, FGF-20 (human, UniProt Q9NP95 2-211, limits assumed).
T3 construct: Bought recombinant protein
The experiment in a line: SPR, Biacore T100; Fc fusion captured on Protein-A CM5 chip, FGF as analyte, 50 ug/ml heparin. The procedure: as §1, §2

The target of assay [4] is T4, FGF-5 (human, UniProt P12034 23-268, limits assumed).
T4 construct: Bought recombinant protein
T4 sequence (looked up): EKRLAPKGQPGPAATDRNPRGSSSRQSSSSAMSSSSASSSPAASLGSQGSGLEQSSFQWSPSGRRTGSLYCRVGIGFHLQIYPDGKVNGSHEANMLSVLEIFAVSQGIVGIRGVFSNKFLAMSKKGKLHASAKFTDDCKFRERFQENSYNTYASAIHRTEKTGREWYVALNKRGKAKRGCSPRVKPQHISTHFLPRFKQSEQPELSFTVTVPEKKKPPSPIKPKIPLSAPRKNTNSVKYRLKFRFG
The assay is described as above. The procedure: as §1, §2

Assay [5] has as its target T5, FGF-7 (human, UniProt P21781 32-194).
T5 construct: Bought recombinant protein
T5 sequence (looked up): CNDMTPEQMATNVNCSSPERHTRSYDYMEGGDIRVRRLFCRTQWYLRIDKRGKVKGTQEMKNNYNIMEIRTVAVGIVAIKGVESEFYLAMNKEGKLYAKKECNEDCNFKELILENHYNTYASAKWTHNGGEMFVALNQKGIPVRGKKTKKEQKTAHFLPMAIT
Described as above. The procedure:
as §1, §2

Assay [6] concerns the target FGF-9 (human, UniProt P31371). The description is as above. The procedure: as §1, §2
Assay [7] addresses T6, FGF-19 (human, UniProt O95750).
T6 construct: Bought recombinant protein
The description is as above. The protocol:
as §1, §2

The target of assay [8] is T7, FGF-4 (human, UniProt P08620 54-206, limits assumed).
T7 construct: Bought recombinant protein
T7 sequence (looked up): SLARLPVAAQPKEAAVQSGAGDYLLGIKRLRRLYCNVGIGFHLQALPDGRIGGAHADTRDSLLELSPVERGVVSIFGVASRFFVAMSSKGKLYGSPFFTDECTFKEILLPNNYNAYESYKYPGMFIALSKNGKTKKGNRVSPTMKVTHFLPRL
The description is as above. The protocol:
as §1, §2

T6 sequence (O95750 25-216 limits assumed): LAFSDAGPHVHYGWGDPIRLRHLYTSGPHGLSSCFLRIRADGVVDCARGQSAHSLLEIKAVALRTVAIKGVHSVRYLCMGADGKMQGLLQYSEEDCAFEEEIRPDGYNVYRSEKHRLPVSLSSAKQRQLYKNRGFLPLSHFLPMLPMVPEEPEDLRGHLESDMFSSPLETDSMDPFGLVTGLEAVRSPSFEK
T1 sequence (P05230 16-155 limits assumed): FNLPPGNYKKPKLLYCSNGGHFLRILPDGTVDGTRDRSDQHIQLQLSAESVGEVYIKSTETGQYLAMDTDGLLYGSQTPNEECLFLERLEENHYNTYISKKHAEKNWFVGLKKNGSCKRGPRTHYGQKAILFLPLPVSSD
T3 sequence (Q9NP95 2-211 limits assumed): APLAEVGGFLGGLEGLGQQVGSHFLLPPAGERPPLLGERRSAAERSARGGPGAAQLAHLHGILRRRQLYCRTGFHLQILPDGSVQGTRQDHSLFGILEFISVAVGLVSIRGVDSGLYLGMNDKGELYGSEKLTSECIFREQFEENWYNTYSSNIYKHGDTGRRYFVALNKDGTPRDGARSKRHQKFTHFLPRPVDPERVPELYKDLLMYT

B1: FGFR3-IIIc ECD-Fc (FGFR3-IIIc ECD + GS linker + Fc) (Fc fusion)
chain: ESLGTEQRVVGRAAEVPGPEPGQQEQLVFGSGDAVELSCPPPGGGPMGPTVWVKDGTGLVPSERVLVGPQRLQVLNASHEDSGAYSCRQRLTQRVLCHFSVRVTDAPSSGDDEDGEDEAEDTGVDTGAPYWTRPERMDKKLLAVPAANTVRFRCPAAGNPTPSISWLKNGREFRGEHRIGGIKLRHQQWSLVMESVVPSDRGNYTCVVENKFGSIRQTYTLDVLERSPHRPILQAGLPANQTAVLGSDVEFHCKVYSDAQPHIQWLKHVEVNGSKVGPDGTPYVTVLKTAGANTTDKELEVLSLHNVTFEDAGEYTCLAGNSIGFSHHSAWLVVLPAEEELVEADEAGSVYAGGS[human IgG1 Fc with changes left out]
notes: Produced in 293-6E host cells (pTT5 vector); Captured through its Fc on Protein-A coupled to a CM5 chip; also called FGFR3-IIIc-Fc; FGFR3-IIIc ECD Fc fusion with a GS linker
Broadly, the koff is the first-order rate constant of dissociation. One may read the kon as the second-order rate constant of association. For the molecule B1, the koff in assay [1] is 0.000331 s⁻¹; in assay [2], 0.00018 s⁻¹; in assay [3], 0.000404 s⁻¹; in assay [4], 0.00169 s⁻¹; in assay [5] it was 0.0471 s⁻¹; in assay [6], 0.000417 s⁻¹. The koff came out at 0.443 s⁻¹ in assay [7] and 0.00155 s⁻¹ in assay [8]. Moreover, in assay [4], the kon is 231000 M⁻¹ s⁻¹.
